Experimental data taken from PubChem BioAssay AID504706 (National Center for Advancing Translational Sciences (NCATS), 2011).
Hit rate of the full screen: of about 320,000 compounds, about 200 (0.062%) were called active. This list was built around the results that the source calls inconclusive (neither active nor inactive); the mix of calls is not that of the screen. Calls come from the whole dose curve; as a rule, active = well fitted activation curve with a large enough effect; inconclusive = small, poorly fitted or top-dose-only effect; inactive = no such curve, though single readings can be large or run the other way. No potency is given beside an inconclusive call; the fits are too rough.

Assay: qHTS assay for re-activators of p53 using a Luc reporter; note: nearly all actives have a fitted effect of over 45% in size; for activity change, positive = activation: % of control where 0% means no effect
Conditions: H1299 p53-A138V BP100-luciferase reporter, luminescence, 24 h; series mostly up to 92.2 µM; activity change, positive = activation: at the top concentration
Procedure, shortened: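 p53-null H1299 cells stably carrying temperature-sensitive p53-A138V and a BP100-luciferase reporter were pinned with compounds (4-point, 1:5 series) and held 24 hrs at 37 deg C. Luminescence was read 10 min after detection reagent.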
Potency is the fitted concentration of half-maximal effect; tags give direction and shape of the fitted curve.

Question: With `O=C(NCC1(N2CCCCC2)CCCCC1)C1CC(=O)N(c2ccc3c(c2)OCCO3)C1` (stereo not given) as the compound, how does the “activity change, positive = activation” value read?
Answer: inactive: 0.941%

Question: Which Potency does the source give for `Cc1ccc2nc(-c3ccc(N4C(=O)CC(N5CCN(CCO)CC5)C4=O)cc3)sc2c1` (stereo not given) here?
Answer: inconclusive [activator, partial curve, poor fit]

Question: For `c1ccc(CSCc2cn3ccsc3n2)cc1`, which Potency is on record?
Answer: inconclusive [activator, partial curve, poor fit]

Question: For `O=C(CSc1nnc(NC(=O)c2ccco2)s1)NC1CCCC1`, which Potency is on record?
Answer: inconclusive [activator, single point]

Question: For `Cc1cccc(C)c1NC(=O)COC(=O)c1cccc2c1C(=O)c1ccccc1C2=O`, which “activity change, positive = activation” value is on record?
Answer: inactive: -5.95%

Question: For `O=C(CCSc1ccccc1)N1CCCC1`, which “activity change, positive = activation” value is on record?
Answer: inactive: 4.67%

Question: For `COc1cccc(-n2sc3c(c2=S)-c2cc(OC)ccc2NC3(C)C)c1`, which “activity change, positive = activation” value is on record?
Answer: inactive: 1.12%

Question: For `Cc1cc(C)cc(Oc2nc3ccccn3c(=O)c2/C=C(\C#N)C(=O)NC2CCS(=O)(=O)C2)c1` (stereo not given), which Potency is on record?
Answer: inconclusive [activator, single point]

Question: For `CSc1ccc(CNC(=O)C2CCC(=O)N(Cc3cccc(F)c3)C2)cc1` (stereo not given), which “activity change, positive = activation” value is on record?
Answer: inactive: -1.13%

Question: Which Potency does the source give for `CN1CCN(C2CCN(Cc3ccc(O)c4ncccc34)CC2)CC1` here?
Answer: inconclusive [activator, full curve, poor fit]

Question: For `O=C(/C=C/c1cccs1)N1CCc2ccccc21`, which Potency is on record?
Answer: inconclusive [activator, partial curve, poor fit]

Question: Which “activity change, positive = activation” value does the source give for `COc1ccc(-c2csc(-n3ncc(C(=O)O)c3C(F)(F)F)n2)cc1` here?
Answer: inactive: 7.66%

Question: Which “activity change, positive = activation” value does the source give for `COc1cccc(CNC(=O)Cn2ccc3cc(S(=O)(=O)N4CCCC4)ccc32)c1OC` here?
Answer: inactive: -13.5%

Question: With `COC/C=C/C1=CC2=CC(=O)C(C)(OC(=O)c3cnc4ccccc4n3)C(=O)C2=CN1CCCOC(C)C` (stereo not given) as the compound, how does the Potency read?
Answer: inconclusive [activator, single point]

Question: Which Potency does the source give for `CN(C)c1ccc(/C=C/c2ccncc2)cc1` here?
Answer: inconclusive [activator, partial curve, poor fit]

Question: With `N#C/C(=C\C=C\c1ccccc1)C(=O)N1CCCC1` as the compound, how does the Potency read?
Answer: inconclusive [activator, partial curve, poor fit]

Question: With `COc1ccccc1N1CCN(C(=S)Nc2cccc(C)c2)CC1` as the compound, how does the “activity change, positive = activation” value read?
Answer: inactive: -3.06%

Question: With `CC1CCCCN1CCn1cnc2c([nH]c3ccccc32)c1=O` (stereo not given) as the compound, how does the Potency read?
Answer: inconclusive [activator, single point]

Question: With `N#Cc1ccsc1NC(=O)COC(=O)C1=NNC(=O)CC1` as the compound, how does the Potency read?
Answer: inconclusive [activator, partial curve, poor fit]

Question: For `COc1ccc(Cn2c(-c3ccc(Br)cc3)c[n+]3ccccc23)cc1`, which Potency is on record?
Answer: inconclusive [activator, partial curve, poor fit]

Question: With `O=C(NC(=S)NCCc1ccccc1)c1ccccc1` as the compound, how does the Potency read?
Answer: inconclusive [activator, partial curve, poor fit]

Question: With `O=C(Cc1cccs1)N/N=C/C=C/c1ccccc1` as the compound, how does the Potency read?
Answer: inconclusive [activator, full curve, poor fit]

Question: With `COc1cccc(/C=C/C(=O)c2ccc3c(c2)OCO3)c1OC` as the compound, how does the Potency read?
Answer: inconclusive [activator, full curve, poor fit]

Question: For `O=C(CSc1nnc2ccccn12)Nc1ncc(Cl)cc1Cl`, which Potency is on record?
Answer: inconclusive [activator, partial curve, poor fit]

Question: With `COc1cc(/C=C/c2nc3ccccc3s2)cc(OC)c1O` as the compound, how does the Potency read?
Answer: inconclusive [activator, single point]

Question: With `CCC(C)(C)C1CCC(=NNc2nc3ccccc3[nH]2)CC1` (stereo not given) as the compound, how does the Potency read?
Answer: inconclusive [activator, partial curve, poor fit]

Question: Which Potency does the source give for `CN(C)CCCN(C(=O)c1cc2ccccc2oc1=O)c1nc2ccc(F)cc2s1` here?
Answer: inconclusive [activator, single point]

Question: Which Potency does the source give for `Clc1cc(Cl)c2nc(N3CCOCC3)sc2c1` here?
Answer: inconclusive [activator, partial curve, poor fit]

Question: Which “activity change, positive = activation” value does the source give for `CC(=O)Nc1ccc(C(=O)OCC(=O)Nc2ccc(N3CCOCC3)cc2)cc1` here?
Answer: inactive: -0.988%

Question: Which Potency does the source give for `O=[N+]([O-])c1cccc(-c2c(-c3ccccc3)ncc3ccc(F)cc23)c1` here?
Answer: inconclusive [activator, full curve, poor fit]

Question: Which Potency does the source give for `CC(=O)C1=C(O)C(=O)N(c2ccc(Br)cc2)C1c1cccc([N+](=O)[O-])c1` (stereo not given) here?
Answer: inconclusive [activator, single point]

Question: Which “activity change, positive = activation” value does the source give for `O=C(CCNC(=O)c1ccco1)Nc1ccc(Cl)cc1` here?
Answer: inactive: 1.83%

Question: For `O=C(/C=C/c1ccc([N+](=O)[O-])cc1)Nc1cccnc1`, which “activity change, positive = activation” value is on record?
Answer: inactive: 4.35%

Question: With `COc1ccc(CCNC(=S)Nc2ccccc2C)cc1` as the compound, how does the “activity change, positive = activation” value read?
Answer: inactive: -4.65%

Question: Which Potency does the source give for `CCN(CC)c1ccc(NC(=O)c2ccccc2F)cc1` here?
Answer: active: 39.8 µM

Question: For `CCCOc1ccc(-c2c(C(=O)N/N=C/C3CCCCC3)nnn2-c2nonc2N)cc1`, which “activity change, positive = activation” value is on record?
Answer: inactive: 4.66%

Question: Which Potency does the source give for `Cn1ccnc1SCC(=O)Nc1ccc2ccccc2c1` here?
Answer: inconclusive [activator, partial curve, poor fit]

Question: For `Cc1cc(C(=O)COC(=O)c2ccc(F)cc2F)c(C)n1C1CC1`, which Potency is on record?
Answer: inconclusive [activator, full curve, poor fit]

Question: With `O=c1[nH]cnc2cc(-c3ccc(Br)cc3)sc12` as the compound, how does the Potency read?
Answer: inconclusive [activator, partial curve, poor fit]

Question: For `CS(=O)(=O)Nc1ccc(-c2n[nH]c(=S)n2-c2ccccc2)cc1`, which “activity change, positive = activation” value is on record?
Answer: inactive: -2.14%

Question: For `CCCSC1=C(C#N)C(c2cccs2)C(C(=O)Nc2ccccc2)=C(C)N1` (stereo not given), which “activity change, positive = activation” value is on record?
Answer: inactive: 17%

Question: With `CCOC(=O)Nc1c(C(=O)OC)[nH]c2cc(OC)ccc12` as the compound, how does the “activity change, positive = activation” value read?
Answer: inactive: -7.95%

Question: Which Potency does the source give for `CCCN1C(=O)SC(CC(=O)Nc2ccccc2)C1=O` (stereo not given) here?
Answer: inconclusive [activator, single point]

Question: Which “activity change, positive = activation” value does the source give for `CN(C)CCOCCOc1ccc(Cl)cc1C(C)(C)C` here?
Answer: inactive: -5.5%

Question: For `O=C1NC[C@H](c2ccccc2)N(CCC23CC4CC(CC(C4)C2)C3)C1=O`, which “activity change, positive = activation” value is on record?
Answer: inactive: -5.69%

Question: With `CCOc1cccc(/C=C/c2ccc3cccc(O)c3n2)c1O` as the compound, how does the Potency read?
Answer: active: 10 µM

Question: With `O=C(CSc1ccc(-c2ccccn2)nn1)c1ccccc1` as the compound, how does the Potency read?
Answer: inconclusive [activator, partial curve, poor fit]

Question: With `CCCCn1cnc2cc(NCc3cccc(OC)c3O)ccc21` as the compound, how does the “activity change, positive = activation” value read?
Answer: inactive: 12.1%

Question: With `C/C(=C\COc1ccc2ccc(=O)oc2c1)CC[C@@H](O)C(C)(C)O` as the compound, how does the Potency read?
Answer: inconclusive [activator, full curve, poor fit]

Question: With `Cc1cc(C(=O)CN2c3cccc4cccc(c34)S2(=O)=O)c(C)n1C` as the compound, how does the Potency read?
Answer: inconclusive [activator, single point]

Question: For `Oc1ccc(Br)cc1/C=N/n1cnc2ccccc21`, which Potency is on record?
Answer: inconclusive [activator, partial curve, poor fit]

Question: For `O=C(NC1CCCCC1)c1nn2c(C(F)(F)F)cc(-c3ccco3)nc2c1Br`, which Potency is on record?
Answer: inconclusive [activator, single point]

Question: For `Cc1c(Br)c(C(=O)N2CCc3ccccc32)nn1C`, which Potency is on record?
Answer: inconclusive [activator, partial curve, poor fit]

Question: Which Potency does the source give for `Cc1cc(NC(=O)CSc2nnc(-c3ccc4c(c3)OCCO4)o2)no1` here?
Answer: inconclusive [activator, partial curve, poor fit]

Question: Which Potency does the source give for `CCCCNc1ncnc2c1cnn2-c1ccccc1` here?
Answer: inconclusive [activator, full curve, poor fit]

Question: For `COC(=O)c1c(NC(=O)CCc2ccc(C)o2)sc(C)c1C`, which “activity change, positive = activation” value is on record?
Answer: inactive: -1.91%

Question: For `Cn1c(N)c(S(=O)(=O)N2CCN(c3ccccc3Cl)CC2)c(=O)n(C)c1=O`, which “activity change, positive = activation” value is on record?
Answer: inactive: 0.207%

Question: For `CC1CCCN(C(=O)CCc2ccccc2)C1` (stereo not given), which Potency is on record?
Answer: inconclusive [activator, partial curve, poor fit]

Question: With `N/C(=N\OC(=O)/C=C/c1ccccc1Cl)c1ccncc1` as the compound, how does the Potency read?
Answer: inconclusive [activator, partial curve, poor fit]

Question: Which “activity change, positive = activation” value does the source give for `O=C(N/N=C\c1ccc([N+](=O)[O-])o1)c1cncc(Br)c1` here?
Answer: inactive: -12.9%

Question: For `CCc1nc(SCC(=O)Nc2cccc3ccccc23)[nH]c(=O)c1C`, which Potency is on record?
Answer: inconclusive [activator, single point]

Question: For `O=C1C2C3C=CC(C4CC34)C2C(=O)N1/N=C/c1ccc([N+](=O)[O-])s1` (stereo not given), which Potency is on record?
Answer: inconclusive [activator, partial curve, poor fit]

Question: With `O=C1/C(=C/c2cccs2)CCc2ccccc21` as the compound, how does the Potency read?
Answer: inconclusive [activator, partial curve]

Question: With `O=C(CCCc1c[nH]c2ccccc12)N1CCCCCC1` as the compound, how does the Potency read?
Answer: inconclusive [activator, full curve, poor fit]

Question: Which Potency does the source give for `c1cncc(Nc2nc(-c3cccs3)cs2)c1` here?
Answer: inconclusive [activator, full curve, poor fit]

Question: For `Cc1cc(N2CCN(C)CC2)nc2ccc(NC(=S)N3CCN(c4ccc(F)cc4)CC3)cc12`, which Potency is on record?
Answer: inconclusive [activator, single point]

Question: With `C=CCN(C(=O)C1CC(=O)N(C2CCCC2)C1)c1nc(-c2ccc(S(C)(=O)=O)cc2)cs1` (stereo not given) as the compound, how does the Potency read?
Answer: inconclusive [activator, full curve, poor fit]

Question: With `CN(C)c1ccc(C(=O)C(=O)c2ccccc2)cc1` as the compound, how does the Potency read?
Answer: inconclusive [activator, partial curve, poor fit]

Question: With `Fc1cccc(-c2cc3nc4c(c(N5CCC6(CC5)OCCO6)n3n2)CCCC4)c1` as the compound, how does the Potency read?
Answer: inconclusive [activator, partial curve, poor fit]

Question: With `CN(C)C(/C=C/Nc1ccccc1F)=C(C#N)C#N` as the compound, how does the “activity change, positive = activation” value read?
Answer: inactive: -3.04%
